From PubChem BioAssay AID624024 (Broad Institute, 2012) come the findings set out here.

Inconclusive results are not listed. The source holds more than one record for some entries. This is not the full list of results. The source may hold further records. The records of an entry are repeated measurements (runs, samples, wells, individuals or studies). What stands in brackets tells the records apart. Letters count within one entry.

The target of the assay is Scavenger receptor class B member 1 (Mus musculus) (UniProt Q61009). The assay is described as follows: modulators of Alexa488-HDL binding to SR-BI, dose response, orthogonal assay for SR-BI HDL uptake inhibitor project, cell-based, ldlA[mSR-BI] CHO, Alexa 488-HDL, powder samples, set 3 (AID 624024). To be noted: ldlA[mSR-BI] CHO cells, Alexa488-HDL binding fluorescence, 3 h.
Sequence of UniProt Q61009 (Q61009 whole entry, looked up): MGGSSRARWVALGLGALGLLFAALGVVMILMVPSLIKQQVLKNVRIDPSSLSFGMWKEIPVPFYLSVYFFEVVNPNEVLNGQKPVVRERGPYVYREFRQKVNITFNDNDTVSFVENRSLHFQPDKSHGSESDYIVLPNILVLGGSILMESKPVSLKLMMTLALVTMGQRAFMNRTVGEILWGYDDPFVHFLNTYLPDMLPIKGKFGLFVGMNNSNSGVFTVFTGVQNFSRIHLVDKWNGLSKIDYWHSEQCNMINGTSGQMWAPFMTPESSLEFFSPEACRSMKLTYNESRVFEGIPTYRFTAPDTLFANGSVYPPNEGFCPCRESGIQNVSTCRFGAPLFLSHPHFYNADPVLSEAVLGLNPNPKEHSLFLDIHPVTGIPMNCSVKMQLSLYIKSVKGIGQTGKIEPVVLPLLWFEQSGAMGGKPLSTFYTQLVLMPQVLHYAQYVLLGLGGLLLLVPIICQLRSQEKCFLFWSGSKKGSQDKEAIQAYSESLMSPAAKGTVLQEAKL

For `CC(C)NC(=O)Nc1ccc2c(c1)C(=O)N([C@H](C)CO)C[C@@H](C)[C@H](CN(C)S(=O)(=O)c1ccc(Cl)cc1)O2`, the AC40 was 18.6 nM [sample A] and 10.3 nM [sample B] and 442 nM [sample C].
